# Measurements from the supplement of paper PMC7826260.
# The list shows a part of the results. One pool of 16,384 single-stranded DNAs met each Rep nickase domain in vitro (1 h at 37 °C, 3 µM enzyme); the outer parts of the 90-letter strands are left off. A value is the log2 ratio of uncut reads to the pool without enzyme; more negative means more cut, near 0 not cut, and no call is made. Reads are scaled to the total; values above 0 arise when much of the pool is cut.
# Tested on: T1, Rep nickase domain of tomato golden mosaic virus
# T1 sequence (Rep 1-124, printed without the tag): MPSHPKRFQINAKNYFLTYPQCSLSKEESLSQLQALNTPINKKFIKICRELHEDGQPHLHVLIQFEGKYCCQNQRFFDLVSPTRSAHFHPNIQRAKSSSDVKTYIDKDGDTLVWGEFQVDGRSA
# Experiment: uncleaved DNA left, log2 of reads against the no-enzyme library (log2 ratio); higher = less cleavage (more negative = more Rep cleavage of the k-mer); sequences stand for … in CTCGTCCG…ACCGGAGA
# Protocol: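 A pool of 90-nt single-stranded DNAs with seven random bases just before the constant AC of the nick site (name = the seven bases) was cut by 3 µM recombinant His6-SUMO-tagged Rep nickase domain (300 nM DNA, 50 mM HEPES pH 8.0, 50 mM NaCl, 1 mM MnCl2, 1 h, 37 °C, three replicates). Uncut DNA was amplified and sequenced.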
row,Sequence,uncleaved DNA left (log2)
1,GATTCTG,0.0522
2,ACAGGGA,0.00277
3,TAGCCCT,-0.092
4,TTAAAAA,0.0541
5,GTGACAC,0.116
6,CCCGCGA,-0.215
7,CGCCGGC,0.00667
8,TGATGAA,0.114
9,TATGCGG,0.082
10,TGGTACG,-0.0488
11,ACGAACG,-0.0904
12,CTTAACG,0.125
13,CGGGATG,0.0358
14,TCGAACA,0.105
15,TCATCAA,-0.0122
16,CACTAGG,0.0123
17,AGGAGAT,0.168
18,CACTTCA,-0.0563
19,GGGCCTT,-0.00187
20,GACTACC,0.0239

row,Sequence,uncleaved DNA left (log2)
1,CTCATTT,-0.0505
2,AGTTCCG,-0.117
3,GCCACCG,-0.0849
4,GAATATG,0.0619
5,GTAAACA,0.0847
6,TCTATGG,0.219
7,TCGTACC,-0.24
8,ACCTACT,0.0307
9,CCTTATT,-0.319
10,ACTAATT,0.0807
11,CTAACTA,0.0241
12,GGTGCTT,-0.0207
13,CGCTGCA,0.0424
14,CTATACG,-0.0785
15,TTATAGC,-0.0604
16,AAGGCAT,0.0393
17,CCTTTAC,-0.0248
18,TTCCACT,-0.147
19,TTCGGTC,0.0725
20,TTGCGGC,-0.164
